Source: PubChem BioAssay AID1460 (National Center for Advancing Translational Sciences (NCATS), 2008)
Screen size: about 270,000 compounds; about 5,800 (2.1%) were called active. This list was built around the results that the source calls inconclusive (neither active nor inactive); the mix of calls is not that of the screen. Calls follow the shape of the dose curve; as a rule, active = well fitted inhibition curve with a large enough effect; inconclusive = small, poorly fitted or top-dose-only effect; inactive = flat fitted curve, though single readings scatter. Where the call is inconclusive, the potency comes from a doubtful curve fit.

target: Microtubule-associated protein tau (Homo sapiens) (UniProt P10636); experiment: qHTS for Inhibitors of Tau Fibril Formation, Thioflavin T Binding; settings: recombinant tau K18 P301L (four-repeat tau fragment), heparin-induced fibrillization, ThT fluorescence; series mostly up to 57.4 µM; also: nearly all actives have a fitted effect of over 55% in size
Procedure, shortened: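 Heparin-induced fibrillization of the P301L-mutant K18 repeat-domain fragment of human tau was followed by ThT binding in quantitative high-throughput format.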
Potency is read from the fitted curve at half-maximal effect; tags tell the direction and shape of the fitted curve.

Chain of UniProt P10636 (P10636 whole entry, looked up, the tested form may be a part): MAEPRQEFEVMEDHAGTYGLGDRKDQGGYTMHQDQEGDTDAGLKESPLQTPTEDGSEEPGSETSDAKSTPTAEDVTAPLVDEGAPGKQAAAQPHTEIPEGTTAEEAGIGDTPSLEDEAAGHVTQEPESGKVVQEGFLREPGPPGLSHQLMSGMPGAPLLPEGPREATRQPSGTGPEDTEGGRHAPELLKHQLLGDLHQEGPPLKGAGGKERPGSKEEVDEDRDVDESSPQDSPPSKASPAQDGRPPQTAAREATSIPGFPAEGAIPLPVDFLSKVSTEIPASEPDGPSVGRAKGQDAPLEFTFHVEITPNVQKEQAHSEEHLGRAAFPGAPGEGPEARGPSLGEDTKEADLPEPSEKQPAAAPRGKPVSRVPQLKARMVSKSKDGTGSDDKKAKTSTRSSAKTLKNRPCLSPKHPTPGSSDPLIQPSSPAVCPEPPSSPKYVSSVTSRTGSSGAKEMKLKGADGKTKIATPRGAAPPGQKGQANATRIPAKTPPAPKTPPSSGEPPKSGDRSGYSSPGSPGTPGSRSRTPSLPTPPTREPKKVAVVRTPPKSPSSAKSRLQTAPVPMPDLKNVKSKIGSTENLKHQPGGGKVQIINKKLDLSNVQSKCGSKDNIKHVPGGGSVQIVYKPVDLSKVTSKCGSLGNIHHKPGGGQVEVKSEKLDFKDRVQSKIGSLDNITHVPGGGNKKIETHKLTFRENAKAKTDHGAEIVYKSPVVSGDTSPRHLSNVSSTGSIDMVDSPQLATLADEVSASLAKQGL

**Q.** Which Potency does the source give for `O=C(CSc1ccccn1)N1CCN(c2ccccc2)CC1` here?
**A.** The Potency was “inactive”.

**Q.** For `Cc1cc(C)cc(N(CC(=O)Nc2ccc(-c3nc4ccc(C)cc4s3)cc2)S(C)(=O)=O)c1`, which Potency is on record?
**A.** Its Potency is inconclusive: 10 µM [activator, partial curve].

**Q.** Which Potency does the source give for `CCN(CC)c1ccc(NC(=O)C2COc3ccc(OC)cc3C2)c(C)c1` (centres undefined) here?
**A.** The Potency was inconclusive: 25.1 µM [inhibitor, partial curve, poor fit].

**Q.** How did the Potency turn out when `CCCOc1ccc(OCCNC2CCCC2)cc1` was run?
**A.** Its Potency is “inactive”.

**Q.** With `CN(C)c1ccc(/C=N/NC(=O)c2ccc(NC(=O)c3ccccc3)cc2)cc1` as the compound, how does the Potency read?
**A.** Its Potency is active: 1.58 µM.

**Q.** `COc1ccc(-c2nc(NC(=O)CCNC(=O)c3ccco3)sc2C)cc1` was tested. Which Potency did it give?
**A.** Its Potency is inconclusive: 5.01 µM [inhibitor, partial curve, poor fit].

**Q.** For `Cn1c(SCc2ccc(C(C)(C)C)cc2)nnc1C1COc2ccccc2O1` (centres undefined), which Potency is on record?
**A.** Its Potency is “inactive”.

**Q.** For `Cc1cc(C)c(NC(=O)CCCSc2nnc(N)s2)c(C)c1`, which Potency is on record?
**A.** The Potency was “inactive”.

**Q.** `CCN(CC)CCCNC(=O)c1ccc2nc(CCc3ccccc3)oc2c1` was tested. Which Potency did it give?
**A.** Its Potency is “inactive”.

**Q.** How did the Potency turn out when `COC(=O)c1c(C)[nH]c(-c2csc(N)n2)c1C` was run?
**A.** The Potency was active: 25.1 µM.

**Q.** How did the Potency turn out when `COc1cc(NS(=O)(=O)c2ccc(NC(=S)NC(=O)c3sc4cc(F)ccc4c3Cl)cc2)nc(OC)n1` was run?
**A.** Its Potency is inconclusive: 28.2 µM [inhibitor, partial curve].

**Q.** How did the Potency turn out when `COC(=O)/C(=C1/Oc2cc(C)oc(=O)c2S1)C(F)(F)F` was run?
**A.** The Potency was active: 8.91 µM.

**Q.** How did the Potency turn out when `CCCCSC1(SCCCC)N=C(N)C2(C#N)C(c3ccccc3)NC(C)=CC12C#N` (centres undefined) was run?
**A.** Its Potency is inconclusive: 17.8 µM [inhibitor, partial curve].

**Q.** Which Potency does the source give for `C=Cc1ccc(Cn2c(=O)n(-c3cccc(C)c3)c(=O)c3c2c2cc(C)ccc2n3C)cc1` here?
**A.** Its Potency is “inactive”.

**Q.** Which Potency does the source give for `COc1cc(C)c(CNc2cccc(C)c2)cc1C` here?
**A.** The Potency was “inactive”.

**Q.** For `CN(CCO)CCOCCOc1cccc2ccccc12`, which Potency is on record?
**A.** Its Potency is “inactive”.

**Q.** With `Cc1cc(NC(=O)CCC(=O)N(CC2CCCO2)C(C(=O)NC2CCCC2)c2cccnc2)no1` (centres undefined) as the compound, how does the Potency read?
**A.** Its Potency is “inactive”.

**Q.** How did the Potency turn out when `Cc1cc(N2CCN(C(c3ccccc3)c3ccc(Cl)cc3)CC2)n2ncnc2n1` (centres undefined) was run?
**A.** Its Potency is inconclusive: 25.1 µM [inhibitor, single point].

**Q.** With `O=C(Nc1ccon1)c1csc2ccccc12` as the compound, how does the Potency read?
**A.** The Potency was “inactive”.

**Q.** Which Potency does the source give for `O=C(CCSc1ccc(Cl)cc1)Nc1cccnc1` here?
**A.** Its Potency is “inactive”.

**Q.** With `CN(C)c1ccc(C(CNS(=O)(=O)c2ccc(Br)cc2)N2CCOCC2)cc1` (centres undefined) as the compound, how does the Potency read?
**A.** Its Potency is inconclusive: 15.8 µM [inhibitor, partial curve].

**Q.** `CCCCN1C(=S)NC[C@@H]1Cc1ccccc1` was tested. Which Potency did it give?
**A.** The Potency was “inactive”.

**Q.** For `COc1ccc(-n2nnnc2SCC(=O)N2CCCc3ccccc32)cc1OC`, which Potency is on record?
**A.** The Potency was “inactive”.

**Q.** `Cc1ccc2sc(NNC(=O)C3COc4ccccc4O3)nc2c1C` (centres undefined) was tested. Which Potency did it give?
**A.** The Potency was inconclusive: 22.4 µM [inhibitor, partial curve].

**Q.** `COc1ccc([N+](=O)[O-])cc1NC(=O)CSc1nc(C)cc(C)n1` was tested. Which Potency did it give?
**A.** Its Potency is “inactive”.

**Q.** With `O=c1c(C=NCCN2CCNCC2)c(-c2ccccc2)[nH]n1-c1ccc([N+](=O)[O-])cc1` as the compound, how does the Potency read?
**A.** Its Potency is inconclusive: 2.82 µM [inhibitor, full curve].

**Q.** For `CN(C)c1ccc(NC(=O)Cn2c(SCc3ccccc3F)nc3cccnc32)cc1`, which Potency is on record?
**A.** Its Potency is “inactive”.

**Q.** With `Fc1ccccc1-n1[nH]nnc1=S` as the compound, how does the Potency read?
**A.** Its Potency is “inactive”.

**Q.** Which Potency does the source give for `COc1ccc(COC(=O)N/N=C2/C[C@@H](O)[C@@H](O)[C@@H]3[C@@H]4C(=O)N(c5cccc(Oc6ccccc6)c5)C(=O)[C@H]4CC[C@@H]23)cc1` here?
**A.** Its Potency is inconclusive: 1.12 µM [inhibitor, partial curve, poor fit].

**Q.** How did the Potency turn out when `COc1cc(OC)cc(C(=O)Nc2cccc(N3CCCC3)c2)c1` was run?
**A.** Its Potency is inconclusive: 6.31 µM [inhibitor, partial curve].

**Q.** `CC(C)(C)OC(=O)N1CCC(c2c(C(=O)NCc3ccco3)cnn2-c2ccc(F)cc2)CC1` was tested. Which Potency did it give?
**A.** Its Potency is “inactive”.

**Q.** How did the Potency turn out when `COc1ccc(OCC(=O)Nc2ccc(N3CCN(C(=O)c4ccccc4C)CC3)cc2)cc1` was run?
**A.** Its Potency is inconclusive: 39.8 µM [inhibitor, single point].

**Q.** `COc1cccc(NC(=S)N(CCN(C)C)C(C)c2ccco2)c1` (centres undefined) was tested. Which Potency did it give?
**A.** The Potency was “inactive”.

**Q.** For `Cc1ccccc1Nc1nc(-c2sc(NC(=O)c3ccco3)nc2C)cs1`, which Potency is on record?
**A.** The Potency was inconclusive: 7.94 µM [inhibitor, partial curve].

**Q.** With `Cc1cccc(CNc2ncncc2-c2ccccc2C(F)(F)F)c1` as the compound, how does the Potency read?
**A.** Its Potency is “inactive”.

**Q.** How did the Potency turn out when `CCC(=O)Oc1ccc(-c2nc3ccccc3c(=O)o2)cc1` was run?
**A.** Its Potency is inconclusive: 2.51 µM [inhibitor, full curve, poor fit].

**Q.** `CCN(c1ccc(Cl)cc1)S(=O)(=O)c1nnc(NC(=O)C(C)C)s1` was tested. Which Potency did it give?
**A.** Its Potency is inconclusive: 8.91 µM [inhibitor, full curve].

**Q.** How did the Potency turn out when `CN(Cc1ccco1)c1ncnc2ccc(-c3ccc4c(c3)OCO4)cc12` was run?
**A.** Its Potency is “inactive”.

**Q.** How did the Potency turn out when `CCCCNC(=O)c1c[nH]c2ccc(S(=O)(=O)Nc3ccc(OCC)cc3)cc2c1=O` was run?
**A.** Its Potency is inconclusive: 1.41 µM [inhibitor, full curve].

**Q.** For `Cc1ccc(Nc2nnc(SC/C(O)=C(\C#N)c3nc4ccccc4[nH]3)s2)c(C)c1`, which Potency is on record?
**A.** Its Potency is inconclusive: 12.6 µM [inhibitor, partial curve].

**Q.** For `CCC(C)(C)NC(=O)C(c1ccc(C)cc1)N(Cc1ccco1)C(=O)Cn1nnc2ccccc21` (centres undefined), which Potency is on record?
**A.** The Potency was “inactive”.

**Q.** For `CCOC(=O)/C=C/C(=O)OCC(=O)NC(c1ccccc1)c1ccccc1`, which Potency is on record?
**A.** The Potency was inconclusive: 5.62 µM [inhibitor, full curve, poor fit].

**Q.** With `O=C(Nc1cccc2c1CCCC2)c1ccc(Cl)c([N+](=O)[O-])c1` as the compound, how does the Potency read?
**A.** Its Potency is inconclusive: 2.82 µM [inhibitor, full curve].

**Q.** How did the Potency turn out when `Oc1ccc(Br)cc1-c1cc(-c2ccccc2F)[nH]n1` was run?
**A.** The Potency was inconclusive: 4.47 µM [inhibitor, partial curve].

**Q.** `Cc1ccc(-c2nc(SCc3ccc(Br)cc3)n3[nH]c(=O)cc3n2)cc1` was tested. Which Potency did it give?
**A.** The Potency was “inactive”.

**Q.** For `O=C(c1ccco1)N1CCN(C(=O)c2sccc2-c2ccccc2)CC1`, which Potency is on record?
**A.** The Potency was “inactive”.

**Q.** Which Potency does the source give for `O=c1c2cc(-c3ccccc3)sc2ncn1/N=C/c1ccco1` here?
**A.** Its Potency is inconclusive: 2.24 µM [inhibitor, full curve, poor fit].

**Q.** Which Potency does the source give for `COCCc1nn2c(=O)cc(COC(=O)c3ccc(C(C)(C)C)cc3)nc2s1` here?
**A.** The Potency was “inactive”.

**Q.** For `Cc1ccc(Nc2nc(N/N=C/c3c[nH]c4ccccc34)nc(N3CCOCC3)n2)cc1`, which Potency is on record?
**A.** The Potency was inconclusive: 35.5 µM [inhibitor, single point].
